These results are taken from the supplement of paper PMC10037445.

± gives the standard deviation of the averaged measurements. The full ranking holds about 2,900 compounds; the median of “IRF Lucia reporter activity, fold change vs agonist alone” is about 0.9, and the highest 2% start at about 2.8. The list shows a part of the results.

Experiment [1] deals with RAW-Dual. Briefly: IRF Lucia reporter activity, fold change vs agonist alone; higher = enhanced IRF activity. The conditions noted are these: cytotoxicity flag (confluency mask): not cytotoxic, agonist: MPLA (TLR4) […]. A digest of the protocol:
(§1)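 RAW-Dual macrophages were seeded in DMEM at 50,000 cells/well in 384-well plates, given 50 nL of library stock by pin tool, and given a PRR agonist 1 h later. Plates were held at 37 °C, 5% CO2 for 20 hours, after which supernatant was read for IRF by QuantiLuc luminescence and for NF-κB by QuantiBlue absorbance at 620 nm. Reporter activity is expressed as fold change over wells that received agonist alone. A well was called cytotoxic when IncuCyte confluency fell below 70% of agonist controls in both mask sets.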

The test system of experiment [2] is RAW-Dual. In words: IRF Lucia reporter activity, fold change vs agonist alone; cytotoxicity flag (confluency mask): not cytotoxic; higher = enhanced IRF activity. A digest of the protocol: as §1
For experiment [3], the system named is RAW-Dual. In words: IRF Lucia reporter activity, fold change vs agonist alone; cytotoxicity flag (confluency mask): cytotoxic (confluency <70% of control); higher = enhanced IRF activity. In outline: as §1
[4] abbreviates: library stock concentration (final ~1000-fold dilution): 2 mM.
[5] abbreviates: agonist: 3'3'-cGAMP (STING) 10 ug/mL.
Where [6] appears, read: library stock concentration (final ~1000-fold dilution): 10 mM.

For `O=C(COc1ccc(Cl)cc1)NC1CCC(NC(=O)COc2ccc(Cl)cc2)CC1` (stereo not given), the “IRF Lucia reporter activity” value in the experiment with RAW-Dual [1] (setting [4]) worked out at 1.22.

As for `COc1cc2ncnc(Oc3cccc(NC(=O)Nc4cc(C(C)(C)C(F)(F)F)on4)c3)c2cc1OC` (library stock concentration (final ~1000-fold dilution): 10 mM), the entries for the “IRF Lucia reporter activity” value in the experiment with RAW-Dual [2] (setting [5]) and in the experiment with RAW-Dual [2] (agonist: LPS (TLR4) 0.1 ug/mL) were 0.728 and 0.555, respectively.

For `NCC(=O)Nc1ccc(-n2nc(C(F)(F)F)cc2-c2ccc3c(ccc4ccccc43)c2)cc1` (library stock concentration (final ~1000-fold dilution): 10 mM), the “IRF Lucia reporter activity” value in the experiment with RAW-Dual [2] (setting [5]) was found to be 0.0488; in the experiment with RAW-Dual [2] (agonist: LPS (TLR4) 0.1 ug/mL), 0.105.

On to `NCC(=O)Nc1ccc(-n2nc(C(F)(F)F)cc2-c2ccc3c(ccc4ccccc43)c2)cc1`, for which, in the experiment with RAW-Dual [1] (setting [6]), the “IRF Lucia reporter activity” value is 0.122.

With `COc1ccc(-c2nc3cc(C4=NNC(=O)CC4C)ccc3[nH]2)cc1` (stereo not given) (library stock concentration (final ~1000-fold dilution): 10 mM), the “IRF Lucia reporter activity” value worked out at 0.294 with RAW-Dual [2] (setting [5]) and 0.934 in the experiment on RAW-Dual [2] (agonist: LPS (TLR4) 0.1 ug/mL).

For the compound `COc1ccc(-c2nc3cc(C4=NNC(=O)CC4C)ccc3[nH]2)cc1` (stereo not given), in the experiment with RAW-Dual [1] (setting [6]), the “IRF Lucia reporter activity” value turned out to be 1.24.

With `Cc1ccc(S(=O)(=O)n2c(N)nc3ccccc32)cc1`, the “IRF Lucia reporter activity” value in the experiment on RAW-Dual [1] (setting [6]) came out at 1.12 ± 0.18.

On to `Cc1ccc(S(=O)(=O)n2c(N)nc3ccccc32)cc1` (library stock concentration (final ~1000-fold dilution): 10 mM), for which the “IRF Lucia reporter activity” value came out at 1.17 ± 0.022 in the experiment on RAW-Dual [2] (setting [5]) and 0.927 ± 0.074 in the experiment on RAW-Dual [2] (agonist: LPS (TLR4) 0.1 ug/mL).

Take `Br.Cc1ccc(Sc2ccccc2N2CCNCC2)c(C)c1` (library stock concentration (final ~1000-fold dilution): 10 mM): the entries for the “IRF Lucia reporter activity” value in the experiment on RAW-Dual [3] (setting [5]) and in the experiment with RAW-Dual [3] (agonist: LPS (TLR4) 0.1 ug/mL) were 0.325 and 0.0699, respectively.

Turning to `CNC(=O)c1ccc(-c2cnc3ncc(Cc4ccc5ncccc5c4)n3n2)cc1F`, in the experiment with RAW-Dual [1] (setting [4]), the “IRF Lucia reporter activity” value is 1.16.

On to `CNC(=O)c1ccc(-c2cnc3ncc(Cc4ccc5ncccc5c4)n3n2)cc1F` (library stock concentration (final ~1000-fold dilution): 2 mM), for which the “IRF Lucia reporter activity” value in the experiment with RAW-Dual [2] (setting [5]) worked out at 0.848; with RAW-Dual [2] (agonist: LPS (TLR4) 0.1 ug/mL), 1.

For the compound `CC/C(C)=C/CC[C@](C)(O)C1CC[C@]2(C)C3C[C@@H](O[C@@H]4O[C@H](CO)[C@@H](O)[C@H](O)[C@H]4O[C@@H]4O[C@@H](C)[C@H](O)[C@@H](O)[C@H]4O)C4C(C)(C)C(O)CC[C@]4(C)C3C[C@H](O)C12` (stereo not given in full) (library stock concentration (final ~1000-fold dilution): 10 mM), the “IRF Lucia reporter activity” value with RAW-Dual [2] (setting [5]) came to 0.856; with RAW-Dual [2] (agonist: LPS (TLR4) 0.1 ug/mL), 0.999.

In the case of `Cc1c(CN2CCN(C(=O)C(C)O)CC2)sc2c(N3CCOCC3)nc(-c3cnc(N)nc3)nc12` (stereo not given), the “IRF Lucia reporter activity” value in the experiment with RAW-Dual [1] (setting [6]) is 0.891.

Regarding `Cc1c(CN2CCN(C(=O)C(C)O)CC2)sc2c(N3CCOCC3)nc(-c3cnc(N)nc3)nc12` (stereo not given) (library stock concentration (final ~1000-fold dilution): 10 mM), the figures for the “IRF Lucia reporter activity” value with RAW-Dual [2] (setting [5]) and in the experiment with RAW-Dual [2] (agonist: LPS (TLR4) 0.1 ug/mL) were 0.373 and 0.997, respectively.

Turning to `O=C(NCc1ccncc1)C12CC3CC(C1)CC(c1ccc(Cl)cc1)(C3)C2`, the “IRF Lucia reporter activity” value with RAW-Dual [1] (setting [6]) was 1.29.

`O=C(NCc1ccncc1)C12CC3CC(C1)CC(c1ccc(Cl)cc1)(C3)C2` (library stock concentration (final ~1000-fold dilution): 10 mM): the results for the “IRF Lucia reporter activity” value in the experiment on RAW-Dual [2] (setting [5]) and in the experiment on RAW-Dual [2] (agonist: LPS (TLR4) 0.1 ug/mL) were 0.409 and 0.998, respectively.

For the compound `CCOc1ccc2c(c1)C(C)=CC(C)(C)N2` (library stock concentration (final ~1000-fold dilution): 10 mM), the “IRF Lucia reporter activity” value in the experiment with RAW-Dual [2] (setting [5]) amounted to 0.888; in the experiment with RAW-Dual [2] (agonist: LPS (TLR4) 0.1 ug/mL) it was 1.38.

For `COc1cc2c(c(O)c1OC)-c1c(cc(OC)c(OC)c1OC)CC(C)C(C)C2` (stereo not given) (library stock concentration (final ~1000-fold dilution): 10 mM), the “IRF Lucia reporter activity” value in the experiment on RAW-Dual [2] (setting [5]) turned out to be 1.48; with RAW-Dual [2] (agonist: LPS (TLR4) 0.1 ug/mL) it was 0.929.

Regarding `CCC(=O)N1CCC(Nc2ncnc3c2CN(c2cnc(OC)c(C(F)(F)F)c2)CC3)C1` (stereo not given) (library stock concentration (final ~1000-fold dilution): 10 mM), the “IRF Lucia reporter activity” value was 0.908 in the experiment on RAW-Dual [2] (setting [5]) and 0.847 with RAW-Dual [2] (agonist: LPS (TLR4) 0.1 ug/mL).

`NC(=O)Cc1cccc(C(=O)c2ccccc2)c1N`: in the experiment on RAW-Dual [1] (setting [6]), the “IRF Lucia reporter activity” value came out at 1.07.

With `NC(=O)Cc1cccc(C(=O)c2ccccc2)c1N` (library stock concentration (final ~1000-fold dilution): 10 mM), the “IRF Lucia reporter activity” value in the experiment on RAW-Dual [2] (setting [5]) was 0.95; in the experiment with RAW-Dual [2] (agonist: LPS (TLR4) 0.1 ug/mL) it was 1.18.

As for `CN(c1ncccc1CNc1nc(Nc2ccc3c(c2)CC(=O)N3)ncc1C(F)(F)F)S(C)(=O)=O.O=S(=O)(O)c1ccccc1` (library stock concentration (final ~1000-fold dilution): 10 mM), the “IRF Lucia reporter activity” value amounted to 1.01 in the experiment with RAW-Dual [2] (setting [5]) and 0.0165 in the experiment on RAW-Dual [2] (agonist: LPS (TLR4) 0.1 ug/mL).

For `CN(c1ncccc1CNc1nc(Nc2ccc3c(c2)CC(=O)N3)ncc1C(F)(F)F)S(C)(=O)=O.O=S(=O)(O)c1ccccc1`, in the experiment with RAW-Dual [1] (setting [6]), the “IRF Lucia reporter activity” value worked out at 1.1.

As to `CC(C)NCC(O)c1ccc(NS(C)(=O)=O)cc1.Cl` (stereo not given) (library stock concentration (final ~1000-fold dilution): 10 mM), the “IRF Lucia reporter activity” value in the experiment with RAW-Dual [2] (setting [5]) was 1.02; with RAW-Dual [2] (agonist: LPS (TLR4) 0.1 ug/mL) it was 1.06.

Turning to `CC(C)NCC(O)c1ccc(NS(C)(=O)=O)cc1.Cl` (stereo not given), the “IRF Lucia reporter activity” value in the experiment with RAW-Dual [1] (setting [6]) turned out to be 1.04.
